The supplement of paper PMC7125110
± gives the standard error. Variants at the floor of the assay are shown more often than the library holds them.

B1: glmS ribozyme (parent)
chain: AUAAAAGCGCCAGAACUACAGAAAUGUAGUUGACGAGGAGGAGGUUUAUCGAAUUUUCGGCGGAUGCCUCCAAA

How the values were obtained:
Conditions in all cases: with glucosamine-6-phosphate
glucosamine-6-phosphate [1] = variants of: B1; assay: self-cleavage kobs at 640 uM GlcN6P; higher = faster cleavage; RNA array
Summary of the method: (§1)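 Over ~14 h at 37 °C, tiles were imaged as glucosamine-6-phosphate (40 μM to 10 mM) in HEPES/KCl/Mg(OAc)2 buffer flowed across sequenced MiSeq chips. The chips carried barcoded ribozyme variants transcribed in situ by E. coli RNA polymerase and tracked with a hybridised Cy3 probe. After normalisation to baseline and to non-cleaving reference variants, one- or two-exponential decay fits of per-tile medians gave kobs. kcat and KM followed from weighted Michaelis–Menten fits across concentrations.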

glucosamine-6-phosphate [2] = variants of: B1; assay: self-cleavage kobs at 2500 uM GlcN6P; higher = faster cleavage; RNA array
Summary of the method: as §1

glucosamine-6-phosphate [3] = variants of: B1; assay: self-cleavage kobs at 160 uM GlcN6P; higher = faster cleavage; RNA array
Summary of the method: as §1

glucosamine-6-phosphate [4] = variants of: B1; assay: self-cleavage kobs at 10000 uM GlcN6P; higher = faster cleavage; RNA array
Summary of the method: as §1

| Variant | self-cleavage kobs at 640 uM GlcN6P (glucosamine-6-phosphate [1]) [s⁻¹] | self-cleavage kobs at 2500 uM GlcN6P (glucosamine-6-phosphate [2]) [s⁻¹] | self-cleavage kobs at 160 uM GlcN6P (glucosamine-6-phosphate [3]) [s⁻¹] | self-cleavage kobs at 10000 uM GlcN6P (glucosamine-6-phosphate [4]) [s⁻¹] |
| --- | --- | --- | --- | --- |
| A33C A42G G51U G62U | < 1e-05 | < 1e-05 |  |  |
| G29A U47G A53G | 0.000173 ± 3.2e-05 | 0.000477 ± 0.00013 | 6.62e-05 ± 2e-05 |  |
| G32A G38A U45G | < 1e-05 | < 1e-05 | < 1e-05 |  |
| A15G G32A C61U | < 1e-05 | < 1e-05 |  |  |
| A14U U30G U69G C71G | 0.000132 ± 4.4e-05 | 0.00026 ± 5.9e-05 |  |  |
| G29U C50U G63U | < 1e-05 |  |  |  |
| U30A G40U G60C C61A | < 1e-05 | < 1e-05 |  |  |
| U30C A36C G59U | < 1e-05 |  |  |  |
| G29C C61G C70U | < 1e-05 |  |  |  |
| G13C A36G G63C | < 1e-05 |  | < 1e-05 |  |
| A15U G43C | < 1e-05 |  |  |  |
| G29C G38A G40A | < 1e-05 | < 1e-05 |  |  |
| G32A C50U A53G | < 1e-05 |  |  |  |
| U30C U56G | 8.86e-05 ± 1.3e-05 | 0.000135 ± 1.8e-05 |  | 0.000296 ± 3.5e-05 |
| G29U G37C U46C U55A C70U | < 1e-05 |  |  |  |
| U30A G60U G63A | < 1e-05 |  |  |  |

| Variant | self-cleavage kobs at 640 uM GlcN6P (glucosamine-6-phosphate [1]) [s⁻¹] | self-cleavage kobs at 2500 uM GlcN6P (glucosamine-6-phosphate [2]) [s⁻¹] | self-cleavage kobs at 160 uM GlcN6P (glucosamine-6-phosphate [3]) [s⁻¹] | self-cleavage kobs at 10000 uM GlcN6P (glucosamine-6-phosphate [4]) [s⁻¹] |
| --- | --- | --- | --- | --- |
| C16U G35C | < 1e-05 |  |  | < 1e-05 |
| G29A G41C G51C | < 1e-05 | < 1e-05 |  |  |
| G32C G44U | < 1e-05 | < 1e-05 | < 1e-05 |  |
| G13U A33G U54C | < 1e-05 | < 1e-05 |  |  |
| G13U A42U G44A U55G | < 1e-05 |  |  |  |
| G13A U49A | < 1e-05 | < 1e-05 | < 1e-05 |  |
| G13C U31G C70U | 4.2e-05 ± 1.9e-05 | 0.000148 ± 3.9e-05 |  | 0.000131 ± 2.7e-05 |
| U30G A52G | 9.63e-05 ± 1.4e-05 |  | 4.03e-05 ± 2e-05 |  |
| U30A C34G A48U A52C | < 1e-05 |  |  |  |
| A14U A15U A36U G40A G41A A53C U65C | < 1e-05 | < 1e-05 |  |  |
| G13A A33C A48G G62U | < 1e-05 |  | < 1e-05 |  |
| G13C A14G G32A | 0.00264 ± 0.00054 | 0.00874 ± 0.0043 | 0.000606 ± 0.00018 |  |
| G13A G62C A64U U69G | < 1e-05 |  |  |  |
| G29U U30A G43A G51U | < 1e-05 |  |  |  |
| G32C U46G G59U | < 1e-05 |  |  |  |
| G13C C50A | < 1e-05 |  |  | < 1e-05 |
